First the molecules themselves.
B1: P1-069293 (P1-068761.IgG1f) (antibody)
heavy: EVQLVESGGGLVQPGKSLRLSCAASGFTLEDEAMHWVRQAPGKGLEWVSGINWNSEEIGYADSVKGRFTISRDNAKNSLYLQMNSLRTEDTALYYCAKVPGYSHGWIDAEDVWGQGTMVTVSSASTKGPSVFPLAPSSKSTSGGTAALGCLVKDYFPEPVTVSWNSGALTSGVHTFPAVLQSSGLYSLSSVVTVPSSSLGTQTYICNVNHKPSNTKVDKRV[human IgG1 Fc not written out]
light: [about 100 residues not written out][about 120 residues not written out]
notes: IgG1f; also called P1-068761 hIgG1f
B2: P1-069302 (P1-061029.IgG1f) (antibody)
heavy: B1 heavy with E30D, E32Y, E56A, E57N, H104G, E110F
light: [about 100 residues not written out][about 120 residues not written out]
notes: IgG1f; also called P1-061029 hIgG1f
B3: P1-069312 (P1-068761.IgG1f afucosylated) (antibody)
heavy: B1 heavy
light: [about 100 residues not written out][about 120 residues not written out]
modifications: afucosylated
notes: IgG1f, afucosylated; also called P1-068761 hIgG1f afucosylated
B4: P1-069307 (P1-061029.IgG1f afucosylated) (antibody)
heavy: B1 heavy with E30D, E32Y, E56A, E57N, H104G, E110F
light: [about 100 residues not written out][about 120 residues not written out]
modifications: afucosylated
notes: IgG1f, afucosylated; also called P1-061029 hIgG1f afucosylated

Positions count from the first letter of the chain named.

For one test, the target named is T1, monovalent hVISTA-ECD (amino acids 32-193 of SEQ ID NO: 1 with a 7xHis tail) (human, UniProt Q9H7M9 33-193).
T1 construct: analyte of the SPR assays; also called huVISTA-His; human VISTA-ECD
T1 sequence (Q9H7M9 other isoform, or with tags, fused parts or gaps limits assumed): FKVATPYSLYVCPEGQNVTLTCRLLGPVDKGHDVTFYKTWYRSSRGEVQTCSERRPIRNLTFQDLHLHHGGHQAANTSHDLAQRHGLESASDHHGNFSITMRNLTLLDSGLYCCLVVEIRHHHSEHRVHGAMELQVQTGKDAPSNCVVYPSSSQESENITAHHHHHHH
The test is described as follows: SPR 37C, pH 7.4 over pH 6.0. The protocol:
(§1) For this assay, ‘029, ‘761 and ‘767were reformatted as hIgG1f isotype and were expressed as both standard hIgG1f and in hIgG1f afucosylated formats to compare against the hIgG1.3f Fc. An SPR kinetics assay was conducted to measure koff and KD binding affinity measurements for VISTA Abs at acidic and physiological pH using a Biacore® T100 instrument (GE Healthcare). […] Antibodies were diluted to 25 nM in PBST pH 7.4, and were captured across active biosensor flow cells at 5 ul/min for 45 seconds. A concentration series of 1600 - 0.78 nM (pH 7.4) and 100 - 0.78 nM (pH 6.0) monovalent hVISTA-ECD (SEQ ID NO: 325) was prepared running buffer, and was injected over the captured antibodies at 40 ul/min to measure association and dissociation. Two 15 second injections of 10 mM glycine pH 1.5 were used to regenerate the Protein A capture surface between assay cycles. Rate constants ka (kₒₙ) and kd (koff) were derived from reference flow cell and 0 nM blank-subtracted sensorgrams, and were fit to a 1:1 binding model in Biacore® T200 Evaluation Software v.2.0. The affinity constant, KD was calculated as the ratio of rate constants koff/kₒₙ for each VISTA antibody. Ratios of koff and KD at pH 7.4 / pH 6.0 were calculated to compare off-rate and affinity improvement at acidic pH relative to physiological pH.
Turning to B1, the “KD ratio (7.4/6)” value came out at 8330 and the “kd ratio (7.4/6)” value was found to be 28.

In the case of B2, the “KD ratio (7.4/6)” value stood at 5.9 and the “kd ratio (7.4/6)” value is 0.9.

Turning to B3, the “KD ratio (7.4/6)” value stood at 2000 and the “kd ratio (7.4/6)” value turned out to be 28.

Regarding B4, the “KD ratio (7.4/6)” value was found to be 5.9 and the “kd ratio (7.4/6)” value was found to be 0.9.

The next test concerns the target T1, monovalent hVISTA-ECD (amino acids …). The test is described as follows: SPR 37C, Ab on Protein A, hVISTA-ECD 100-0.78 nM, pH 6.0. As to the method:
as §1
What is called Kd is the free concentration of one partner at which half of the binding sites on the other are occupied at equilibrium, for simple one-to-one binding. By koff is commonly meant the rate constant with which the complex falls apart. A lower koff goes with a long-lived complex. What is called kon is the rate constant with which the complex forms. Low values mean slower complex formation, high ones faster complex formation. Molecule B1 showed a Kd of 0.0042 µM, a koff of 0.0015 s⁻¹ and a kon of 360000 M⁻¹ s⁻¹.

In turn, B2 displayed a Kd of 0.0071 µM, a koff of 0.008 s⁻¹ and a kon of 1.1e+06 M⁻¹ s⁻¹.

On to B3, for which binding was put at a Kd of 0.0041 µM, the koff turned out to be 0.0015 s⁻¹ and the kon was determined as 370000 M⁻¹ s⁻¹.

In turn, B4 yielded a Kd of 0.0069 µM, a koff of 0.0078 s⁻¹ and a kon of 1.1e+06 M⁻¹ s⁻¹.

A further test shares this target. The test is described as follows: SPR 37C, Ab on Protein A, hVISTA-ECD 1600-0.78 nM, pH 7.4. As to the method:
as §1
In turn, B1 yielded a Kd of 35 µM, a koff of 0.042 s⁻¹ and a kon of 1200 M⁻¹ s⁻¹.

Turning to B2, the affinity, expressed as Kd, was 0.042 µM; the koff is 0.0074 s⁻¹; the kon turned out to be 170000 M⁻¹ s⁻¹.

Regarding B3, the affinity, expressed as Kd, was 8.2 µM; the koff was found to be 0.042 s⁻¹; the association rate constant (kon) is 5100 M⁻¹ s⁻¹.

Take B4: binding was characterised by a dissociation constant (Kd) of 0.041 µM, the koff stood at 0.0072 s⁻¹ and the kon is 170000 M⁻¹ s⁻¹.

The values above are taken from patent US20230192860A1 (Bristol-Myers Squibb, published 2023).
